# Data taken from article PMC8957250 (ADMET & DMPK, 2019).
# Values joined by “and” are separate entries in the source; they are usually repeats but may differ in a detail not shown here. Equal entries are not always repeated. Where two headings read alike, the source gives them in different places. Marks after values point to notes of the source that are not given here.
# Key:
# [1] = Tissue distribution study in rats after a single oral dose of OP; format: in vivo, rat; conditions: for AUC(0-t): lung, read-out: AUC0-4h of OC in the lungs; for AUC(0-t) / Cmax: rat; for Cmax: plasma, read-out: Cmax of OC in the plasma
# [2] = Tissue/plasma partition coefficients by the area method (AUCtissue/AUCplasma); format: in vivo; conditions: rat, po, rats 10 mg/kg OP p.o.
# [3] = Human OP/OC PBPK model (parameter optimization and simulation); conditions: for clearance: plasma
# [4] = rat
# [5] = Rat, Experimental, cited from earlier work
# [6] = cited from earlier work
# [7] = parameters: method as in PMID 10866439; conditions: human; not used in model, for reference; cited from earlier work
# [8] = tested on: neuraminidases; parameters: method as in PMID 10628898; conditions: enzymatic assay; read-out: IC50 of OC for neuraminidases; cited from earlier work
# [9] = tested on: influenza virus; parameters: method as in PMID 10628898; conditions: viral replication inhibition assay; cited from earlier work
# [10] = tested on: H1N1 virus neuraminidase; conditions: H1N1 influenza virus neuraminidase; cited from earlier work
# [11] = tested on: P-glycoprotein; parameters: method as in PMID 17940134; conditions: cited from earlier work
# [12] = Blood to plasma ratio; conditions: for time to equilibrium between plasma and blood: rat blood, preliminary studies; for blood plasma ratio at 30 min, 100 μg/ml: rat, whole blood
# [13] = parameters: method as in PMID 29633861; conditions: rat; cited from earlier work
# [14] = parameters: method as in PMID 9517946; conditions: rats, ferrets and mice; cited from earlier work
# [15] = cited from earlier work; remark: listed apart in the source
# [16] = tested on: carboxylesterases in rat plasma; conditions: cited from earlier work
# [17] = tested on: carboxylesterases in human plasma; conditions: cited from earlier work
# [18] = in vitro; conditions: human
# [19] = footnote of Table 2; cited from earlier work
# [20] = GI tract, adjusted, same for humans
# [21] = Kidney, adjusted, same for humans
# [22] = Liver, adjusted, same for humans
# [23] = Lumped brain (brain + adipose), adjusted to data, same values assumed for humans
# [24] = Lumped lung (lung + heart), adjusted, same for humans
# [25] = Muscle, adjusted, same for humans
# [26] = Spleen, adjusted, same for humans
# [27] = The rest of body, adjusted, same for humans
# [28] = Human, Optimized, i.v. route (bracketed)
# [29] = human, humans, 70 kg BW, read-out: clearance normalized by body weight (converted)
# [30] = Rat, Optimized, i.v. route (bracketed)
# [31] = Human, Optimized (value used in model)
smiles,measurement,setting,value
"CCC(CC)O[C@@H]1C=C(C(=O)O)C[C@H](N)[C@H]1NC(C)=O [OC, oseltamivir carboxylate]",AUC(0-t),[1]; 10 mg/kg OP oral,5.2 µg·h/mL
same,AUC(0-t),[1]; 50 mg/kg OP oral,26.1 µg·h/mL
same,Cmax,[1]; 10 mg/kg OP single oral dose,0.8 µg/mL
same,Cmax,[1]; 50 mg/kg OP single oral dose,5.63 µg/mL
same,Kp,[2]; [20],1
same,Kp,[2]; [21],8
same,Kp,[2]; [22],5
same,Kp,[2]; [23],0.25
same,Kp,[2]; [24],0.5
same,Kp,[2]; [25],0.5
same,Kp,[2]; [26],0.5
same,Kp,[2]; [27],1
same,CLc,"[3]; Human (70 kg), Optimized",18 L/h
same,BLPLR,"[3]; Human, Optimized",1
same,BLPLR,[3]; [28],0.6
same,CLc,[3]; [28],30 L/h
same,clearance,[3]; [29],0.26 L/h/kg
same,clearance,[4],1.5 L/h/kg
same,CLc,"Rat (0.25 kg), Optimized",0.38 L/h
same,BLPLR,"Rat, Optimized",1
same,BLPLR,[30],0.7
same,CLc,[30],0.5 L/h
same,CLc (clearance of OC),[5]; single 10 mg/kg i.v. dose,0.38 L/h
same,CLc (clearance of OC in urine),"[6]; Human, Experimental",18 L/h
same,Unbound fraction in plasma,[7],97%
same,IC50,[8],0.3 to 2 nM
same,IC50,[9],0.6 to 155 nM
same,IC50 of OC,[9],0.17 to 32.8 ng/mL
same,IC50,[10],0.7 to 2.2 nM
same,P-glycoprotein substrate,[11],P-glycoprotein substrates
same,time to equilibrium between plasma and blood,[12],≤ 20 min
"CCOC(=O)C1=C[C@@H](OC(CC)CC)[C@H](NC(C)=O)[C@@H](N)C1 [OP, oseltamivir phosphate]",Ka (absorption rate constant),"[1]; Rat, Experimental, plasma OC curve after 10 mg/kg OP p.o. fitted to one-compartment model",0.76 h⁻¹
same,Kp,[2]; [20],10
same,Kp,[2]; [21],5
same,Kp,[2]; [22],3
same,Kp,[2]; [23],0.5
same,Kp,[2]; [24],2.5
same,Kp,[2]; [25],1.4
same,Kp,[2]; [26],1.5
same,Kp,[2]; [27],3
same,BLPLR,"[3]; Human, Optimized",1
same,Tlag,"[3]; Human, Optimized",0.44 h
same,Km,[3]; [31],76.0 ^**** mg/L
same,Vmax,[3]; [31],2.6x10^5 mg/h and 2.6 x 10^5 ^**** mg/h
same,F,"[3]; Human, Optimized in PBPK model",0.75
same,Ka,"[3]; Human, Optimized, multiple oral administration (bracketed)",0.14 to 0.28 h⁻¹
same,Ka,"[3]; Human, Optimized, single oral dose",0.35 h⁻¹
same,clearance,[3]; [29],1.4 L/h/kg
same,bioavailability,"[3]; human, po, humans, final PBPK parameter value, read-out: oral bioavailability factor (F)",~80%
same,Vmax normalized by body weight,"[3]; humans, 70 kg BW",3714 mg/kg/h
same,clearance,"[3]; oral, 150 mg, Human, Optimized, read-out: CLp (converted)",1670 mL/min
same,bioavailability,[4]; po,~80%
same,BLPLR,"Rat, Optimized",1
same,Ka,"Rat, Optimized",12 to 15 h⁻¹
same,Tlag,"Rat, Optimized",0.32 to 0.44 h
same,Vmax normalized by body weight,rats,245 mg/kg/h
same,F (oral bioavailability),[5]; AUCp.o.(OP)/AUCi.v.(OC) ratio,0.35
same,CLp,"[6]; Human, Experimental",20 L/h
same,F,"[6]; Human, Experimental",0.75
same,CL/F,[6]; human,0.438 L/min
same,plasma protein binding,[13],53.7%
same,Unbound fraction in plasma,[7],57%
same,oral bioavailability,[14],30-73%
same,brain-to-plasma exposure ratios,[15],approximately 0.2
same,P-glycoprotein substrate,[11],P-glycoprotein substrates
same,hydrolysis by plasma carboxylesterases in vitro,[16],hydrolyzed primarily to OC
same,hydrolysis by plasma carboxylesterases in vitro,[17],not hydrolysed
same,Km,[18],76 µg/mL
same,Km,[19],187 µM
same,"blood plasma ratio at 30 min, 100 μg/ml",[12]; Sprague-Dawley,~1
same,time to equilibrium between plasma and blood,[12],≤ 20 min
same,"blood plasma ratio at 30 min, 100 μg/ml",[12],1
